In all, about 310,000 compounds went through this assay and about 2,200 (0.71%) showed an effect of 50% or more. Effects have a minus sign here. This is one part of the list.
Each compound was assayed against human ether-à-go-go-related gene (hERG) potassium channel (human, UniProt Q12809) (assay: primary screen, population patch clamp on CHO cells stably expressing hERG).
Chain of human ether-à-go-go-related gene (hERG) potassium channel (Q12809 whole entry, looked up): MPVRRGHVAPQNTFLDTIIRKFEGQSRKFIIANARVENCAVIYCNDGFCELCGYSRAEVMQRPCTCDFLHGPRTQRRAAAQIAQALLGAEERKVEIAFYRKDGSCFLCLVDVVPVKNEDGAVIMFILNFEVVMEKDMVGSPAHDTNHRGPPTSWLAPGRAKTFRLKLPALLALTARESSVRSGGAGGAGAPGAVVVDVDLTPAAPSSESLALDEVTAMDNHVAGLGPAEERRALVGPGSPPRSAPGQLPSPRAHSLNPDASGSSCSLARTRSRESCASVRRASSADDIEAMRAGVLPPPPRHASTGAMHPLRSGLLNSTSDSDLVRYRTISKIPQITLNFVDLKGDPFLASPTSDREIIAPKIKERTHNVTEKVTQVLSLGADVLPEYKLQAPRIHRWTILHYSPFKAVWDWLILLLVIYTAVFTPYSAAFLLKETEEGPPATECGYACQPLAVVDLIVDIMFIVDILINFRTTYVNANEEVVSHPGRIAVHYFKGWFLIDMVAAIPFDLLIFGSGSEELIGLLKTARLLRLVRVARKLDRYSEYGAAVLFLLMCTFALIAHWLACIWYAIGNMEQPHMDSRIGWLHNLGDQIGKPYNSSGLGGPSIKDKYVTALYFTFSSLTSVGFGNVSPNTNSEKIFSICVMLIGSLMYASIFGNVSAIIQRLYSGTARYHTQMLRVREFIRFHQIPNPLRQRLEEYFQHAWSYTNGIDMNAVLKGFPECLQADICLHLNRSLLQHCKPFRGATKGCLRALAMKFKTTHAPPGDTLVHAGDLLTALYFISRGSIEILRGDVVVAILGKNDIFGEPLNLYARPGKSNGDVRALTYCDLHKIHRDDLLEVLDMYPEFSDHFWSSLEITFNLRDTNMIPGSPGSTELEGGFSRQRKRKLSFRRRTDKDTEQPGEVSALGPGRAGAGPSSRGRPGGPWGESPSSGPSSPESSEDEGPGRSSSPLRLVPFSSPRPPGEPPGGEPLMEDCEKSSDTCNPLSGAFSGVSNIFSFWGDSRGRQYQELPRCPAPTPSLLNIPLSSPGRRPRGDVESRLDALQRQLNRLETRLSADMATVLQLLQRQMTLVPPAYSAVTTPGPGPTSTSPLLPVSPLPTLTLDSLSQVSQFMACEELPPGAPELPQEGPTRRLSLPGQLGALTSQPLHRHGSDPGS
O=C(CC(Sc1ccccc1)c1cccs1)c1ccco1 (centres unmarked) was tested, and the “hERG current change (%, negative = inhibition) at 1uM” value was 13.3%.
CCc1ccccc1NC(=O)NNC(=O)c1ccc2ccccc2c1O was tested, and the “hERG current change (%, negative = inhibition) at 1uM” value was 12.6%.
In the case of CCn1c(COc2ccc3c(c2)OCO3)nnc1SCC(=O)c1ccccc1, the “hERG current change (%, negative = inhibition) at 1uM” value is reported as 17.7%.
COc1ccc(S(=O)(=O)N2CCc3ccccc32)cc1C(=O)N(CC(C)C)C1CCS(=O)(=O)C1 (centres unmarked) was tested, and the “hERG current change (%, negative = inhibition) at 1uM” value was -0.203%.
In the case of C=CCN(c1ccccc1)S(=O)(=O)c1ccc2c(c1)oc(=O)n2C, the “hERG current change (%, negative = inhibition) at 1uM” value is reported as 10.7%.
For COCCCNc1nc(N)c([N+](=O)[O-])c(NC2CCCCC2)n1, the “hERG current change (%, negative = inhibition) at 1uM” value was 10.8%.
COc1ccc(S(=O)(=O)N(CCc2ccccc2)CC(=O)NCCCO)cc1 was tested, and the “hERG current change (%, negative = inhibition) at 1uM” value was -12.8%.
In the case of CN(Cc1cccnc1)C(=O)c1cc(COc2ccc3ncccc3c2)on1, the “hERG current change (%, negative = inhibition) at 1uM” value is reported as 9.64%.
For Cc1cc(C(=O)Nc2cc(C(F)(F)F)ccc2N2CCOCC2)no1, the “hERG current change (%, negative = inhibition) at 1uM” value was 6.68%.
With CN(C)c1ccc(P(=O)(OCc2ccccc2)C(O)c2ccc(Br)cc2)cc1 (centres unmarked) the “hERG current change (%, negative = inhibition) at 1uM” value was 9.48%.
For COC(=O)Nc1sc2c(c1C(N)=O)CCCCCC2, the “hERG current change (%, negative = inhibition) at 1uM” value was 13%.
With COC(=O)[C@@]1(Cc2ccc(OC)cc2)[C@H]2c3cc(C(=O)N(C)C)n(CCSCCO)c3C[C@H]2CN1C(=O)c1ccccc1 the “hERG current change (%, negative = inhibition) at 1uM” value was 11.5%.
With Cc1ccc(NS(=O)(=O)c2cccc([N+](=O)[O-])c2)nc1 the “hERG current change (%, negative = inhibition) at 1uM” value was 13.1%.
With O=Cc1ccccc1OS(=O)(=O)c1ccccc1 the “hERG current change (%, negative = inhibition) at 1uM” value was 8.42%.
For CCCc1cc(=O)oc2cc(OCC(=O)Nc3ccc(S(N)(=O)=O)cc3)ccc12, the “hERG current change (%, negative = inhibition) at 1uM” value was 9.5%.
N#CCCN(C(=O)COC(=O)C1CCN(S(=O)(=O)c2ccc3c(c2)OCCO3)CC1)c1ccccc1 was tested, and the “hERG current change (%, negative = inhibition) at 1uM” value was 7.27%.
In the case of O=C(COC(=O)c1cc(-c2cccs2)nn1-c1ccccc1)Nc1ccc(F)c([N+](=O)[O-])c1, the “hERG current change (%, negative = inhibition) at 1uM” value is reported as 6.55%.
In the case of CCC(=O)OC1(C)C(=O)C=C2C=C(CCCCNC(=O)OC(C)(C)C)OC=C2C1=O (centres unmarked), the “hERG current change (%, negative = inhibition) at 1uM” value is reported as 7.75%.
COc1ccc2c(c1)[nH]c1c(=O)n(CCN3CCCC3)cnc12 was tested, and the “hERG current change (%, negative = inhibition) at 1uM” value was -17.4%.
For O=C(NC(=O)c1c(F)cccc1F)O/N=C1\CCCc2occc21, the “hERG current change (%, negative = inhibition) at 1uM” value was 14.5%.
For CN(CCC#N)C(=O)COC(=O)/C=C/c1cccs1, the “hERG current change (%, negative = inhibition) at 1uM” value was 11.9%.
CCN(CC)CCNC(=O)c1sc2ncn(CC(=O)Nc3ccc(C)c(Cl)c3)c(=O)c2c1C was tested, and the “hERG current change (%, negative = inhibition) at 1uM” value was -2.5%.
In the case of COC(=O)[C@H](C)NC(=O)Nc1ccc(OC)c(OC)c1, the “hERG current change (%, negative = inhibition) at 1uM” value is reported as 7.67%.
In the case of NC(=O)C1CCN(C(=O)CSc2ncccn2)CC1, the “hERG current change (%, negative = inhibition) at 1uM” value is reported as 12%.
O=C1NC[C@H](CC2CCCCC2)N(CC2CCCCC2)C1=O was tested, and the “hERG current change (%, negative = inhibition) at 1uM” value was 4.79%.
With COc1ccc(N2CCN(CCCNC(=O)c3cc4sccc4n3C)CC2)cc1 the “hERG current change (%, negative = inhibition) at 1uM” value was -77.7%.
With COc1ccc(CC(=O)NNS(=O)(=O)c2cccc([N+](=O)[O-])c2)cc1OC the “hERG current change (%, negative = inhibition) at 1uM” value was 16%.
CCOC(=O)C(NC(=O)c1ccc(Cl)cc1Cl)(Nc1ccc(C)cc1)C(F)(F)F (centres unmarked) was tested, and the “hERG current change (%, negative = inhibition) at 1uM” value was 9.22%.
For Cc1cc2c(cc1C)CSC(c1ccc(O)cc1)SC2, the “hERG current change (%, negative = inhibition) at 1uM” value was 12.5%.
With Cc1c(C)c(C)c(S(=O)(=O)n2[nH]c(=O)c(CCO)c2C)c(C)c1C the “hERG current change (%, negative = inhibition) at 1uM” value was 4.43%.
In the case of COCC1CCN(C(=O)c2ccc3oc(Cc4ccccc4)nc3c2)C1 (centres unmarked), the “hERG current change (%, negative = inhibition) at 1uM” value is reported as 3.37%.
For C/C(=N\Nc1nc2ccccc2[nH]1)c1ccc2c(c1)OCCO2, the “hERG current change (%, negative = inhibition) at 1uM” value was 0.523%.
NNC(=O)C(Cc1c[nH]c2ccccc12)NC(=O)c1ccccc1 (centres unmarked) was tested, and the “hERG current change (%, negative = inhibition) at 1uM” value was 17.5%.
CC(C)(C)C1CCc2c(sc(N)c2C(N)=O)C1 (centres unmarked) was tested, and the “hERG current change (%, negative = inhibition) at 1uM” value was 7.56%.
In the case of COc1ccc(CC(=O)Nc2nc(-c3cc(OC)ccc3OC)cs2)cc1, the “hERG current change (%, negative = inhibition) at 1uM” value is reported as 13.1%.
In the case of CCOc1ccc(NC(=O)N2CCC(NC(=O)C(Cc3cccc(F)c3)NC(C)=O)CC2)cc1 (centres unmarked), the “hERG current change (%, negative = inhibition) at 1uM” value is reported as 15.7%.
With COc1cc2c(cc1OC)CN(c1ccc(-c3ccccc3OC)nn1)CC2 the “hERG current change (%, negative = inhibition) at 1uM” value was 10.2%.
COc1ccc(N2CCN(C(CNC(=O)C(=O)NCC3CCCO3)c3ccco3)CC2)cc1 (centres unmarked) was tested, and the “hERG current change (%, negative = inhibition) at 1uM” value was 6.64%.
For Cc1ccc(C(=O)c2c3ccc(C(F)(F)F)cc3[n+]([O-])n2CCC(N)=O)cc1, the “hERG current change (%, negative = inhibition) at 1uM” value was -28.8%.
CCn1cc(C(=O)NCCCN2CCCC(C)C2)c(=O)c2cc(S(=O)(=O)N3CCc4ccccc4C3)ccc21 (centres unmarked) was tested, and the “hERG current change (%, negative = inhibition) at 1uM” value was -64.2%.
O=C(CN1CCC(n2nnc3cc(F)ccc32)CC1)NCCc1nc2ccccc2[nH]1 was tested, and the “hERG current change (%, negative = inhibition) at 1uM” value was 3.57%.
With CC1CCN(C(=O)c2[nH]cnc2C(=O)N[C@@H](CCCCNC(=O)OC(C)(C)C)C(=O)OC(C)(C)C)CC1 the “hERG current change (%, negative = inhibition) at 1uM” value was 8.02%.
With CCCN(CCC)CCNC(=O)CCC(=O)Nc1ccc2nc(N3CCN(C)CC3)cc(C)c2c1 the “hERG current change (%, negative = inhibition) at 1uM” value was 10.5%.
With COc1ccc2[n-]c(S(=O)Cc3ncc(C)c(OC)c3C)nc2c1.COc1ccc2[n-]c(S(=O)Cc3ncc(C)c(OC)c3C)nc2c1.[Mg+2] (centres unmarked) [49681830] the “hERG current change (%, negative = inhibition) at 1uM” value was 9.37%.
For CCC(C)(C)NC(=O)C(c1cccnc1)N(C(=O)c1csnn1)c1ccc(C)cc1 (centres unmarked), the “hERG current change (%, negative = inhibition) at 1uM” value was 15.7%.
With O=C(COc1ccccc1)NCCc1nc2ccccc2[nH]1 the “hERG current change (%, negative = inhibition) at 1uM” value was 2.76%.
With COc1ccc(-c2cc3ccccc3oc2=O)cc1NC(=O)c1cccnc1 the “hERG current change (%, negative = inhibition) at 1uM” value was -7.29%.
For CCN(CC(=O)N1CCCCC1)S(=O)(=O)c1ccccc1, the “hERG current change (%, negative = inhibition) at 1uM” value was -10.3%.
Cc1ccc(C(=O)OCC(=O)N2C(C)CCCC2C)s1 (centres unmarked) was tested, and the “hERG current change (%, negative = inhibition) at 1uM” value was 5.5%.
In the case of COc1ccc(CSC2=NCCN2)cc1Cl.Cl, the “hERG current change (%, negative = inhibition) at 1uM” value is reported as -7.52%.
CC(C)c1ccc(NC(=O)c2cc(Br)ccc2Br)cc1 was tested, and the “hERG current change (%, negative = inhibition) at 1uM” value was 6.59%.
In the case of Cc1ccc(CN2CCC(NC(=O)c3ccccc3)CC2)cc1, the “hERG current change (%, negative = inhibition) at 1uM” value is reported as -52.8%.
In the case of O=c1[nH]c(Cc2cccs2)nc2scc(-c3ccc(Cl)cc3)c12, the “hERG current change (%, negative = inhibition) at 1uM” value is reported as -3.08%.

From PMC4336329 (PLoS ONE, 2015)
